In all, about 310,000 compounds went through this assay and about 2,200 (0.71%) showed an effect of 50% or more. The effect is printed as a negative number. The list shows a part of the results.

In the experiment the target is human ether-à-go-go-related gene (hERG) potassium channel (human, UniProt Q12809). The experiment is described as follows: primary screen, population patch clamp on CHO cells stably expressing hERG.
Chain of human ether-à-go-go-related gene (hERG) potassium channel (Q12809 whole entry, looked up): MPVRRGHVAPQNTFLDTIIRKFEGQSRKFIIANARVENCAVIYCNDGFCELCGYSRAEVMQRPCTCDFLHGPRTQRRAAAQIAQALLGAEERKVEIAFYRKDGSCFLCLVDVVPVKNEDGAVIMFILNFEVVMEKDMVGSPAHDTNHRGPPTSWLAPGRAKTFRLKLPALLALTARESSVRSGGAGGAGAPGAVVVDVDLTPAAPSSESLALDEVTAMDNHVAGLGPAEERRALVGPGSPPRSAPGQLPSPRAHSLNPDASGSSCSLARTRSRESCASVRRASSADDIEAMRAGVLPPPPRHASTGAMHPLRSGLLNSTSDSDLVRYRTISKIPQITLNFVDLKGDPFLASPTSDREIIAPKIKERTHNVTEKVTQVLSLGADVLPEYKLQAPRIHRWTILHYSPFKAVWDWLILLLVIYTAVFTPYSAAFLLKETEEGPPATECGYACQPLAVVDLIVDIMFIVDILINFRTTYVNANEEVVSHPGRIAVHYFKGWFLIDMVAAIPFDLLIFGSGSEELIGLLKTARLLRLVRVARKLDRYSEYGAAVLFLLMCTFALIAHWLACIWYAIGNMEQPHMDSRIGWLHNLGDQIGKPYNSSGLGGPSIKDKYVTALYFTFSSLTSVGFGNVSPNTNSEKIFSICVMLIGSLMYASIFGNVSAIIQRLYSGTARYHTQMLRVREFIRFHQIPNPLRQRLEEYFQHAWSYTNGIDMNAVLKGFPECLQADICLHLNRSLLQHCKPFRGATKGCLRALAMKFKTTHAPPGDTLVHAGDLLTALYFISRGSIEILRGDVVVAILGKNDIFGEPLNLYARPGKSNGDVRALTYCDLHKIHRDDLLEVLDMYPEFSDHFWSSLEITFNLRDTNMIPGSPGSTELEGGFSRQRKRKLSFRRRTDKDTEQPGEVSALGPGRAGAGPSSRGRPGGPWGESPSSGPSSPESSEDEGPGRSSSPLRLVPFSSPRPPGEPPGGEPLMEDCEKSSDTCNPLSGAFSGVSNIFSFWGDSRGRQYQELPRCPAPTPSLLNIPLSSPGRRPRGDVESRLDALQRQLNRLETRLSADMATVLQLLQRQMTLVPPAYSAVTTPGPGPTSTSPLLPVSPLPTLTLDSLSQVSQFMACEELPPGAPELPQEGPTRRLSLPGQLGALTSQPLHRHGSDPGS
`COc1ccc(C(=O)Nc2ncc3c(n2)CC(c2ccco2)CC3=O)cc1` (stereo not shown): the “hERG current change (%, negative = inhibition) at 1uM” value is reported as -3.46%. The result for `O=C(/C=C/c1ccccc1Cl)Nn1cnc2ccccc2c1=O` reads 11.4%; that for `Cc1nnc2sc(-c3cccc(NC(=O)c4cccnc4)c3)nn12`, -0.992%. Next, `CC(C)(C)c1ccc(OCc2nnc(SCC(N)=O)n2N)cc1`: -3.25%; `COc1ccc(NC(=O)c2ccc(COc3ccccc3OC)o2)cc1OC`: 8.76%; `COC(=O)c1ccccc1NC(=O)CSc1[nH]c(=O)cc(C)c1C#N`: 18%. The result for `COc1ccc(NC(=O)CSc2nnc(-c3cnccn3)n2C)cc1OC` reads 21.9%. In the case of `COc1ccc(NC(=O)CN(C)C(=O)c2cccnc2Sc2ccc(C)c(C)c2)cc1`, the “hERG current change (%, negative = inhibition) at 1uM” value is 0.0587%. The result for `O=C(OC[C@H]1O[C@@H](OC(=O)c2cc(O)c(O)c(OC(=O)c3cc(O)c(O)c(O)c3)c2)[C@H](OC(=O)c2cc(O)c(O)c(OC(=O)c3cc(O)c(O)c(O)c3)c2)[C@@H](OC(=O)c2cc(O)c(O)c(OC(=O)c3cc(O)c(O)c(O)c3)c2)[C@@H]1OC(=O)c1cc(O)c(O)c(OC(=O)c2cc(O)c(O)c(O)c2)c1)c1cc(O)c(O)c(OC(=O)c2cc(O)c(O)c(O)c2)c1` reads 12.2%.

As for `O=C1NC2(CCCC2)C(=O)N1Cc1cc(=O)n2ccsc2n1`, the “hERG current change (%, negative = inhibition) at 1uM” value is given as 11.4%. The result for `O=C(Nc1cccnc1)Nc1cc(Cl)cc(Cl)c1` reads 2.53%; that for `O=C(O)C1C2C=CC3(CN(c4cccc(C(F)(F)F)c4)C(=O)C13)O2` (stereo not shown), 18.4%. The result for `O=C(CN(Cc1cccs1)C(=O)CN1C(=O)COc2ccccc21)NCc1ccco1` reads 2.09%; that for `CC(=O)NNC(=O)c1nc(-c2ccccc2)c(C)o1`, 14.5%; that for `CC1(C)CN(c2ccc(N3CC(C)(C)C3=O)cc2)C1=O`, 10.3%.

Take `Cc1sc2ncnc(N3CCC(C(=O)Nc4ccc(Cl)c(Cl)c4)CC3)c2c1C`: the “hERG current change (%, negative = inhibition) at 1uM” value was determined as 10.4%.

Turning to `CC(=O)Nc1nc(N2C(=O)c3ccccc3C2=O)n(-c2ccccc2)n1`, the “hERG current change (%, negative = inhibition) at 1uM” value is recorded as 24.3%.

For the compound `COc1cccc(CNC(=O)C(=O)N2CCC3(CC2)OCCN3S(=O)(=O)c2ccc(C)cc2)c1`, the “hERG current change (%, negative = inhibition) at 1uM” value is -10.9%. The result for `Cc1ccc(N(C(=O)c2ccc(CN3CCOCC3)o2)C(C(=O)NCCC(C)C)c2cccs2)c(C)c1` (stereo not shown) reads 6.63%; that for `CCCCNC(=O)CNC(=S)N(Cc1ccccc1)Cc1cccnc1`, 1.95%; that for `NNc1ccc(Cl)nn1`, 7.62%.

Take `CC(=O)N1CCc2cc(S(=O)(=O)CCC(=O)N3CCc4ccccc4C3)ccc21`: the “hERG current change (%, negative = inhibition) at 1uM” value amounted to 19.2%. `O=C(NCc1csc(-c2cccs2)n1)c1cccc(Cl)c1`: the “hERG current change (%, negative = inhibition) at 1uM” value worked out at 15.4%.

Consider `CC(=O)Nc1ccccc1OCCOc1ccc(Br)cc1`, for which the “hERG current change (%, negative = inhibition) at 1uM” value is listed as 5.43%. With `CCCN1CCN(C(=O)Cn2nc(C)n3c(cc4sccc43)c2=O)CC1`, the “hERG current change (%, negative = inhibition) at 1uM” value is -7.23%. The result for `CN(CC(=O)Nc1c(Cl)cccc1Cl)C(=O)c1cc(-c2cccs2)nn1-c1ccccc1` reads -2.47%; that for `O=C(CSc1nnc(CNC(=O)c2ccc(F)cc2)o1)NCc1ccccc1`, -1.97%; that for `CCCc1cc(=O)n2[nH]c(NC(=O)c3ccco3)nc2n1`, 14.9%.

`COc1ccc(NC(=O)CS(=O)(=O)c2ccc(Br)cc2)cc1`: the “hERG current change (%, negative = inhibition) at 1uM” value is given as 20%. The result for `CN1CCN(NC(=S)Nc2ccc(Oc3ccccc3)cc2)CC1` reads 13.5%. Next, `CCn1ccnc1CN(C)Cc1cn(C)nc1-c1ccccc1F`: 16.6%. The result for `Br.N=C(N)SCCN` reads 15.3%; that for `COC(=O)c1c(NC(=O)c2ccc(Br)s2)sc2c1CCC2`, -1.26%; that for `O=C(NCC1CCCO1)c1ccc2c(c1)S(=O)(=O)c1ccccc1C2=O` (stereo not shown), 3.24%. For the compound `Cc1ccc(Cc2cncc(O)c2)cc1S(=O)(=O)O`, the “hERG current change (%, negative = inhibition) at 1uM” value is given as 7.4%. Next, `O=C(O)c1cn(Cc2ccccn2)c(=O)c2ccccc12`: 0.0087%. The result for `Cc1ccc(OCCSc2nnc(NC(=O)c3ccco3)s2)cc1` reads 13.7%. Consider `CCOC(=O)CCC(=O)N1CCOCCOCCOCC1`, for which the “hERG current change (%, negative = inhibition) at 1uM” value is 4.01%. Regarding `COc1ccc(C2c3c(ccc4ccccc34)Oc3ncn4nc(CO/N=C/c5ccccc5)nc4c32)cc1` (stereo not shown), the “hERG current change (%, negative = inhibition) at 1uM” value was 11.1%. As for `CCS(=O)(=O)c1ccc2oc(SCC(=O)NCCc3ccc(OC)cc3)nc2c1`, the “hERG current change (%, negative = inhibition) at 1uM” value is -4.88%.

Take `CCN(CC)CCCN=Cc1c(O)n(-c2cccc(C)c2)c(=O)c2ccccc12`: the “hERG current change (%, negative = inhibition) at 1uM” value is -5.31%. The result for `COc1c(C)cc(C(=O)C2CCCN(Cc3cccc4nccnc34)C2)cc1C` (stereo not shown) reads -21.2%; that for `CC(=O)NCCc1nc2ccccc2n1CCOc1ccccc1`, 13%; that for `Cn1nc(-c2ccc(N3CCOCC3)c(NS(=O)(=O)c3ccccc3)c2)c2ccccc2c1=O`, -8.02%.

For `CC1CCCCN1C(=O)NC12CC3CC(CC(C3)C1)C2` (stereo not shown), the “hERG current change (%, negative = inhibition) at 1uM” value came to 1.78%.

Consider `O=C(CSc1nnc(CNc2ccc(Cl)cc2)o1)Nc1nc2c(s1)CCCC2`, for which the “hERG current change (%, negative = inhibition) at 1uM” value is on record as -3.66%. As to `CCn1c(-c2cccnc2Cl)nc2cc(C)c(C)cc21`, the “hERG current change (%, negative = inhibition) at 1uM” value was -2.87%.

As to `CCOC(=O)Cc1csc(NC(=O)c2ccc(Br)cc2)n1`, the “hERG current change (%, negative = inhibition) at 1uM” value came to 13.4%. Next, `O=C(NNC(=S)NCc1ccccc1)c1ccc(Br)o1`: 8.57%. Next, `COCCNC(=S)N(CCO)Cc1cc2cc3c(cc2[nH]c1=O)OCO3`: 16.2%; `Cc1cc(NC(=O)CSc2nc(C(C)(C)C)nc3ccccc23)no1`: 7.92%. As to `CCCn1nc(NC(=O)c2ccco2)c2cc3cc(C)ccc3nc21`, the “hERG current change (%, negative = inhibition) at 1uM” value turned out to be 5.26%. With `Cc1ccc(OCC(=O)N(C)CC(=O)Nc2ccc(Cl)c(C(F)(F)F)c2)c([N+](=O)[O-])n1`, the “hERG current change (%, negative = inhibition) at 1uM” value is -3.3%. Next, `COc1ccc(O)c(C(=O)c2cnn(C(=O)c3cc(C)oc3C)c2)c1`: 11.1%; `Cc1ccc(S(=O)(=O)NNc2ccccc2)c(C)c1`: 8.32%; `COc1ccccc1N1CCN(CC(O)COc2ccc3c(c2)OCO3)CC1.Cl` (stereo not shown): 6.33%. The result for `CCOC(=O)C1CCN(c2c(N3CCCC(C(=O)OCC)C3)c(=O)c2=O)CC1` (stereo not shown) reads 8.36%; that for `Cc1cc(C)c(C)c(OCCN2CC(C)OC(C)C2)c1.O=C(O)C(=O)O` (stereo not shown), 8.8%.

For `COC(=O)c1ccc(NC(=O)c2cccc(Cl)c2)o1`, the “hERG current change (%, negative = inhibition) at 1uM” value is recorded as -2.38%. Next, `COC(=O)C1=C(c2c(C)noc2C)C[C@@H]2CC[C@H]1N2C(=O)N1CCC(O)CC1`: 11.6%. The result for `COc1cc(OC)c(NC(=O)CNC(=O)Cn2ccc3ccccc3c2=O)cc1Cl` reads 10.4%; that for `O=c1cc[nH]c2cccc(Cc3ccccc3)c12`, 0.868%. Turning to `Cc1noc(C)c1S(=O)(=O)N1CCC(Cc2ccccc2)CC1`, the “hERG current change (%, negative = inhibition) at 1uM” value was 7.79%. Next, `COCCNCC(=O)Nc1ccc(C)c(S(=O)(=O)N2CCCCC2)c1.O=C(O)C(=O)O`: 8.21%; `c1ccc(CCn2c(SCc3ccccc3)nnc2-c2ccncc2)cc1`: -12.4%. The result for `COc1cc(-c2[nH]ncc2CN2CCCC2c2nonc2C)cc(OC)c1OC` (stereo not shown) reads 4.6%; that for `CC(=O)Nc1ccc(NC(=O)CN2C(=O)COc3ccc(S(=O)(=O)N4CCOCC4)cc32)cc1`, 17.9%; that for `CC(C)CCn1nnnc1C(c1ccc(F)cc1)N1CCC(C(N)=O)CC1` (stereo not shown), 8.02%. The result for `Cc1cc(=O)oc2cc(OCC(=O)Nc3ccc(S(=O)(=O)N(C)C)cc3)ccc12` reads 6.35%; that for `COCCNC(=O)C1c2ccccc2C(=O)N(CCOC)C1c1ccc(F)cc1` (stereo not shown), 8.19%. For `C1=C(c2ccccc2)Nc2ncnn2C1c1ccccc1` (stereo not shown), the “hERG current change (%, negative = inhibition) at 1uM” value worked out at 4.08%.

Regarding `CCN1CCCC(OC(=O)C(c2ccccc2)c2ccccc2)C1.Cl` (stereo not shown), the “hERG current change (%, negative = inhibition) at 1uM” value is reported as -53%.

Take `CCOc1ccccc1N1CC(C(=O)Nc2cc(S(C)(=O)=O)ccc2Cl)CC1=O` (stereo not shown): the “hERG current change (%, negative = inhibition) at 1uM” value is given as 10.8%. Next, `COc1ccc(Nc2nc(NCCO)nc(N3CCCC3)n2)cc1`: -14.5%. Turning to `Cl.OCCN(CCO)CC(O)Cn1c2ccccc2c2ccccc21` (stereo not shown), the “hERG current change (%, negative = inhibition) at 1uM” value is on record as -4.59%. The result for `COc1ccc(C)cc1NC(=O)CN1CCN(S(=O)(=O)c2ccc(Cl)cc2)CC1` reads 5.63%; that for `O=C(NCC(=O)N1CCN(C(=O)c2ccco2)CC1)c1ccc(Cl)cc1`, -11.4%. The result for `COc1ccc2oc(-c3ccco3)cc(=O)c2c1` reads 3.46%; that for `Cc1cc(C(=O)N/N=C/C=C/c2ccccc2)n[nH]1`, 11.6%; that for `CN(C(=O)COC(=O)C12CC3CC(CC(Cl)(C3)C1)C2)C1(C#N)CCCCC1`, 3.78%. Next, `N#C/C(=C1/CCCCCN1)c1nc2ccccc2s1`: 6.3%; `CC1(C)CC(=O)C(C(c2cccc([N+](=O)[O-])c2)C2C(=O)CC(C)(C)CC2=O)C(=O)C1`: 10.7%; `CCOc1ccc(CCNC(=O)c2cccc(NC3=NC4CS(=O)(=O)CC4S3)c2)cc1OCC` (stereo not shown): 11.8%. On to `COc1ccc(N2C(=O)CS/C2=N\C(=S)Nc2ccccc2)cc1`, for which the “hERG current change (%, negative = inhibition) at 1uM” value is listed as 9.99%. Next, `COC(=O)CC1C(=O)NCCN1C(=O)c1c(F)cccc1F` (stereo not shown): 9.55%.
